Among the data in article PMC3598994 are binding values, retold here.

The chains behind the UniProt entries cited, without tags or fusion partners. Residues count along the entry.
UniProt P11021, residues 19-654: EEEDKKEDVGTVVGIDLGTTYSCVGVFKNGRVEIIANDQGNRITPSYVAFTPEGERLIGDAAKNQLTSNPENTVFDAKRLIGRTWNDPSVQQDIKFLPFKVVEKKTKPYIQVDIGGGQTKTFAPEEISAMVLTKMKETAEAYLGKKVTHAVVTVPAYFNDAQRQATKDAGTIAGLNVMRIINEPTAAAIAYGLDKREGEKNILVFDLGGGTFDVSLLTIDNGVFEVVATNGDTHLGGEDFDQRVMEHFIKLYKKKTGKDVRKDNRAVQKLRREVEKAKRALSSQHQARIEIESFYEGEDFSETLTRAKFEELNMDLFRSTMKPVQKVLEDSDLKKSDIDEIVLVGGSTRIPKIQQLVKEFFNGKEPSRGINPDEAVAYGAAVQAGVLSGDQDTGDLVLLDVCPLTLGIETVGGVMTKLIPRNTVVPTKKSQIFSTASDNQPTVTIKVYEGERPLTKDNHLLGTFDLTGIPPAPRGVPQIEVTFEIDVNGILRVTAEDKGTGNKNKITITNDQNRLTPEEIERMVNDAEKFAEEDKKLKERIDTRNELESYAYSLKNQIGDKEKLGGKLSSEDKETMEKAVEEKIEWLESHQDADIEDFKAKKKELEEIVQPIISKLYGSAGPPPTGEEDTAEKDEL
UniProt P14625, residues 22-803: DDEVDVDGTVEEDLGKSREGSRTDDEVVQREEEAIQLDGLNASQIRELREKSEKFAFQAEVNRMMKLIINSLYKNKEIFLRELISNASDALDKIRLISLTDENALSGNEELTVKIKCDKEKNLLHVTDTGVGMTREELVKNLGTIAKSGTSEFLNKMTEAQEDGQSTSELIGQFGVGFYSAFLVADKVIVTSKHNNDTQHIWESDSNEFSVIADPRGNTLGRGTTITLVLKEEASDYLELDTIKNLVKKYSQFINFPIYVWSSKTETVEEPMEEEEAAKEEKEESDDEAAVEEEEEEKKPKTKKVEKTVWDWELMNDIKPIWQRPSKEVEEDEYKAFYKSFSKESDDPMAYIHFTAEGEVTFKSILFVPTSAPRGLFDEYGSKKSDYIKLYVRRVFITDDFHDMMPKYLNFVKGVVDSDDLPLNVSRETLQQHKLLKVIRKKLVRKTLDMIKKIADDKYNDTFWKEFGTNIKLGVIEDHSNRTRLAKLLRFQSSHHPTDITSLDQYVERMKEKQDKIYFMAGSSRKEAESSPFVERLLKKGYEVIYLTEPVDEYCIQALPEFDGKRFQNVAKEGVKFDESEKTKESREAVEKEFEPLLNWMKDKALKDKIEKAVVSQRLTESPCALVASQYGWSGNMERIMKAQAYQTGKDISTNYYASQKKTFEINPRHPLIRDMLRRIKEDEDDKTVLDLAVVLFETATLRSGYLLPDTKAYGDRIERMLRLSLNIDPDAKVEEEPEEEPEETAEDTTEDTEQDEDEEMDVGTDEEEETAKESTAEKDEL
UniProt P07237, residues 18-508: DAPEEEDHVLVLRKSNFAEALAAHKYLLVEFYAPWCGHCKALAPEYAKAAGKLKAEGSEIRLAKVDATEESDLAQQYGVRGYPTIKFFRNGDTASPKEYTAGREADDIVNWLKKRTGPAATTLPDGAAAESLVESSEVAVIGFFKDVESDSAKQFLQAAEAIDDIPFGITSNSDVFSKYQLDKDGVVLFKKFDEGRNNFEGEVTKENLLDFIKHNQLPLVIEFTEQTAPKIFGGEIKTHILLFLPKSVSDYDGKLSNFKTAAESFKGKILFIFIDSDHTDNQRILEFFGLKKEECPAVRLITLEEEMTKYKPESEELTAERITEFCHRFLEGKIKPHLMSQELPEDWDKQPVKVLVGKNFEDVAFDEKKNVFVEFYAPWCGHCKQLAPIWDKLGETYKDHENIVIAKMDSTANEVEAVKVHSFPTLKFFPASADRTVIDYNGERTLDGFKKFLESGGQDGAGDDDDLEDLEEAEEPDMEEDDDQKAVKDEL

The target in assay [1] is T1, GST-fused Bag5 (Bcl-2 associated athanogene 5), full length (UniProt Q9UL15).
T1 sequence: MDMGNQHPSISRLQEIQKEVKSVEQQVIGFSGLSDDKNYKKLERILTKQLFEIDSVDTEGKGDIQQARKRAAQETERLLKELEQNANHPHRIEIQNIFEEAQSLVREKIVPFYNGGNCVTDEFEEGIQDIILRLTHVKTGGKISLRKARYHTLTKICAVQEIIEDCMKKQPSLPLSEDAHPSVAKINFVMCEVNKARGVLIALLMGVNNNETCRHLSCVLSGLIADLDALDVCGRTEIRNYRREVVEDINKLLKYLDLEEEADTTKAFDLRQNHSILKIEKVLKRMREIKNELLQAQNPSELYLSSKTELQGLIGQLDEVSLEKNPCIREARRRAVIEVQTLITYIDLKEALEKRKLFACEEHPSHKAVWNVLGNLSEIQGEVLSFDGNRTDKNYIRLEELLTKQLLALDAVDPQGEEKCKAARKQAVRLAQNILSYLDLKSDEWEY
The assay is described as follows: pull-down; 10 μg of GST-Bag5 incubated with 250 μg of 22Rv.1 cell lysate; western blot with specific antibodies; only the target purified. On the technique in general: A western blot detects proteins with antibodies after separation by electrophoresis.

Assay [2] deals with T1, GST-fused Bag5 (Bcl-2 associated athanogene 5), full length. The assay is described as follows: pull-down; 10 μg of GST-fused Bag5 or deletion mutant incubated with 500 μg of 22Rv.1 cell lysate; western blot with anti-GRP78; only the target purified.
The target in assay [3] is GRP78/BiP, endogenous in HEK293 cells (human (endogenous in HEK293)) (UniProt P11021). The assay is described as follows: co-IP; HEK293 cells transfected with HA-Bag5, cross-linked with DSP; GRP78/BiP immunoprecipitated with an anti-GRP78 antibody on protein A sepharose, IgG as negative control; blot with anti-HA and anti-GRP78.

No constants are given. Whether binding was seen depends on the method and setting. In cells and extracts the contact can be indirect. Some results given as binding are weak or reduced against the parent protein; the word gives no strength. Sequences can lack the tags named with a protein.

Take “GRP78/BiP, endogenous in 22Rv.1 prostate cancer cells (from UniProt P11021 19-654)”: the binding result in assay [1] and in assay [2] was “binds” each time.
For “GRP94, endogenous in 22Rv.1 cells (from UniProt P14625 22-803)”, the binding entry in assay [1] is “no binding”.
For “protein disulfide isomerase (PDI), endogenous in 22Rv.1 cells (from UniProt P07237 18-508)”, in assay [1], the binding entry is “no binding”.

B1: HA-Bag5 (protein, UniProt Q9UL15 1-447)
chain: T1 sequence
As to B1, in assay [3], the binding entry was “binds”.
